Activity change, negative = inhibition data for 29 compounds are collected here from PubChem BioAssay AID1745853 (National Center for Advancing Translational Sciences (NCATS), 2022).

This is one part of the list. Further columns of the screen follow, without active or inactive calls.

Holding throughout (assay): Primary Screen for Target Class Profiling of Small Molecule Inhibitors of Methyltransferases
For experiment [1], the target named is Glycine N-methyltransferase (Homo sapiens) (UniProt Q14749). The settings on record: purified enzyme, MTase-Glo SAH luminescence; measured here: GNMT inhibition; at 40 µM; stronger effect = lower value. The gist of the method: (§1)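 Each enzyme was assayed with SAM and its substrate. SAH formation detected by MTase-Glo luminescence; single-point 40 uM screen[…].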

Experiment [2] concerns the target Guanidinoacetate N-methyltransferase (Homo sapiens) (UniProt Q14353). The settings on record: purified enzyme, MTase-Glo SAH luminescence; measured here: GAMT inhibition; at 40 µM; stronger effect = lower value. The gist of the method:
as §1

In experiment [3] the target is Histamine N-methyltransferase (Homo sapiens) (UniProt P50135). The following applies: purified enzyme, MTase-Glo SAH luminescence; measured here: HNMT inhibition; at 40 µM; stronger effect = lower value. The gist of the method: as §1
For experiment [4], the target named is Nicotinamide N-methyltransferase (Homo sapiens) (UniProt P40261). The following applies: purified enzyme, MTase-Glo SAH luminescence; measured here: NNMT inhibition; at 40 µM; stronger effect = lower value. The gist of the method: as §1
For experiment [5], the target named is Phenylethanolamine N-methyltransferase (Homo sapiens) (UniProt P11086). The settings on record: purified enzyme, MTase-Glo SAH luminescence; measured here: PNMT inhibition; at 40 µM; stronger effect = lower value. Summed up:
as §1
% is set by controls: 0 for no effect and ±100 for the full control effect.

As for `CCc1cc2c(cc3n2CC(C)(C(=O)NC2CCCCCC2)N(C(C)c2ccccc2)C3=O)s1` (centres undefined), the activity change, negative = inhibition in experiment [1] was -0.792%; in experiment [2] it was 3.06%; in experiment [3] it was -3.09%; in experiment [4] it was -1.41%; in experiment [5], -5.97%.
On to `CCO[C@H]1CN(C2CCC(O)(c3ccc4c(c3)OCO4)CC2)C[C@@H]1NC(=O)CNC(=O)c1cccc(C(F)(F)F)c1` (some centres undefined), for which the activity change, negative = inhibition in experiment [1] was 3.75%; in experiment [2], -1.67%; in experiment [3] it was 0.197%; in experiment [4] it was -17.2%; in experiment [5], -7.79%.
Turning to `COc1ccc(O[C@H]2COCCN(C(=O)C3CCCC3)C2)cc1`, the activity change, negative = inhibition is -4.67% in experiment [1]; -5.93% in experiment [2]; -2.36% in experiment [3]; -8.95% in experiment [4]; -2.71% in experiment [5].
For `CCOC(=O)c1c(C)c2n(c1C)CC(C)(C(=O)NC1CCCCCC1)N(Cc1ccc(Cl)cc1)C2=O` (centres undefined), the activity change, negative = inhibition was -1.41% in experiment [1]; 3.57% in experiment [2]; -4.29% in experiment [3]; 0.003% in experiment [4]; -0.605% in experiment [5].
For `COc1ccccc1C(=O)Nc1cc2c(cc1N1CCCCC1)n(C)c(=O)n2C`, the activity change, negative = inhibition in experiment [1] was -12.8%; in experiment [3] it was -2.87%; in experiment [4], 5.02%; in experiment [5], 38.1%.
For the compound `C[C@@H]1C[C@H](C)CN(CCC(=O)Nc2ccc(Br)cc2)C1`, the activity change, negative = inhibition in experiment [1] is -1.57%; in experiment [2] it was -5.13%; in experiment [3] it was -24%; in experiment [4], -16%; in experiment [5], -15.6%.
Take `CN1C(=O)c2cc(C(=O)NCc3ccc(F)cc3)nn2CC1(C)C(=O)NC1CCCCCC1` (centres undefined): the activity change, negative = inhibition in experiment [1] was 2.39%; in experiment [2], 0.295%; in experiment [3], 2.93%; in experiment [4] it was 0.452%; in experiment [5], -0.542%.
In the same order, the values of `COc1cccc(NC(=O)CCC2CCN(C(=O)C(C)n3cncn3)CC2)c1` (centres undefined) are -1.57%, -0.402%, 0.118%, 1.56% and 9.47%.
In the same order, the values of `COC[C@H]1C[C@@H](NCc2cccc3c2OCO3)[C@H](O)[C@@H]1O` are 1.17%, 1.32%, 3.63%, -4.42% and 7.22%.
With `O=C(NCc1nc(-c2cccc(F)c2)c(-c2ccccn2)[nH]1)C1CCOC1` (centres undefined), the activity change, negative = inhibition in experiment [1] is -4.91%; in experiment [2] it was -1.45%; in experiment [3], 1.58%; in experiment [4] it was -1.65%; in experiment [5], -0.307%.
As to `COc1cccc(CN2CCCC(O)(CN3CCC(C)CC3)C2=O)c1` (centres undefined), the activity change, negative = inhibition is -2.6% in experiment [1]; -4.23% in experiment [2]; -0.761% in experiment [3]; -7.78% in experiment [4]; -3.91% in experiment [5].
Turning to `Cn1c(=O)c2ccc(C(=O)NC3CCCC3)cc2n2c(SCc3c(F)cccc3Cl)nnc12`, the activity change, negative = inhibition in experiment [1] was -6.15%; in experiment [2] it was -2.57%; in experiment [3], -0.198%; in experiment [4] it was 0.825%; in experiment [5], -3.79%.
For the compound `C[C@@H]1O[C@@H](OC[C@H]2O[C@@H](OCC3CCC4CC3C4(C)C)[C@H](O)[C@@H](O)[C@@H]2O)[C@H](O)[C@H](O)[C@H]1O` (some centres undefined), the activity change, negative = inhibition in experiment [1] is 3.61%; in experiment [2] it was 3.55%; in experiment [3], 10.7%; in experiment [4], -8.59%; in experiment [5] it was 6.49%.
As for `COC(=O)N(C)Cc1cccc(N2CCN(C(=O)OC(C)(C)C)CC2)c1F`, the activity change, negative = inhibition in experiment [1] was -7.58%; in experiment [2], -11.6%; in experiment [3], -4.29%; in experiment [4], -16.9%; in experiment [5], -14.7%.
For `Cc1cc2nc(NCCCO)n(CC(=O)c3cc(C(C)(C)C)c(O)c(C(C)(C)C)c3)c2cc1C` the same measures were 2.97%, 11.5%, 0.067%, -17% and -2.25%.
With `COc1ccccc1CNC(=O)c1ccc2c(=O)nc3c(-c4ccc(Cl)cc4)n[nH]n3c2c1`, the activity change, negative = inhibition in experiment [1] is -16.8%; in experiment [2], -8.55%; in experiment [3], -7.93%; in experiment [4] it was -18.6%; in experiment [5], -5.17%.
As to `C=C1CCC2C(C)(COC(C)=O)CCCC2(C)C1CCC(C)CC(=O)O` (centres undefined), the activity change, negative = inhibition was -11.5% in experiment [1]; -5.68% in experiment [2]; 9.7% in experiment [3]; -25.1% in experiment [4]; -12.6% in experiment [5].
In the same order, the values of `COC(=O)c1ccc2c(c1)C1C=CCC1C(c1ccc(Br)cc1)N2` (centres undefined) are -9.39%, -0.291%, -11.7%, -6.05% and -17.5%.
In the same order, the values of `CCCn1c(=O)c2ccc(C(=O)NC3CCCC3)cc2n2c(=O)n(CC(=O)c3ccc(Cl)cc3)nc12` are 1.78%, 6.5%, 1.47%, 3.13% and 1.12%.
`COc1ccc(CCC(=O)N2CCCC(c3nc(-c4ccccc4)no3)CCNC(=O)CC2)cc1` (centres undefined): the activity change, negative = inhibition was -2.15% in experiment [1]; 1.54% in experiment [2]; 0.993% in experiment [3]; -4.77% in experiment [4]; 6.39% in experiment [5].
With `Cc1ccc(C)c(N2CCN(C(=O)c3ccc4c(=O)nc5c(-c6ccc(F)cc6)n[nH]n5c4c3)CC2)c1`, the activity change, negative = inhibition is -14.7% in experiment [1]; -3.72% in experiment [2]; -6.61% in experiment [3]; -6.52% in experiment [4]; -5.81% in experiment [5].
`Cc1noc([C@H]2CCN(CC3CC3)C[C@H]2NC(=O)C2CCOCC2)n1`: the activity change, negative = inhibition is -0.903% in experiment [1]; -0.512% in experiment [2]; 1.16% in experiment [3]; -1.78% in experiment [4]; 1.44% in experiment [5].
For `CC(C)CCNC(=O)C1(C)Cn2nc(C(=O)NCc3ccccc3)cc2C(=O)N1C` (centres undefined) the same measures were 1.44%, 4.38%, 0.972%, -0.857% and -1.72%.
In the same order, the values of `CC(=O)O[C@H]1[C@H](C)[C@@H](O)[C@H]2[C@@H]1C=C(C(=O)O)[C@H]1C[C@@H]3[C@H]([C@H]21)[C@H]1C(=O)O[C@@H]2CC[C@@]3(C)O[C@]1(O)[C@@H]2C` are 1.47%, 4.18%, 3.79%, -8.19% and -0.976%.
In the same order, the values of `Cc1cccc(CNC(=O)C2(C)Cn3cnc(C(=O)NCc4ccccc4)c3C(=O)N2C2CC2)c1` (centres undefined) are -7.47%, 4.7%, -5.08%, -5.82% and -5.46%.
For `CCCn1c(=O)c2ccc(C(=O)NC(C)C)cc2n2c(=O)n(CC(=O)Nc3ccc(C)cc3C)nc12`, the activity change, negative = inhibition was 4.9% in experiment [1]; 0.019% in experiment [2]; -1.15% in experiment [3]; 8.02% in experiment [4]; 6.57% in experiment [5].
As to `O=C(c1ccoc1)N1CCCC(n2cc(-c3nc(C4CC4)no3)nn2)C1` (centres undefined), the activity change, negative = inhibition was -2.78% in experiment [1]; 1.03% in experiment [2]; 0.216% in experiment [3]; 2.85% in experiment [4]; 14.8% in experiment [5].
In the same order, the values of `CCC(C)NC(=O)c1ccc2c(=O)n(C(C)C)c3nn(CC(=O)Nc4ccc(Cl)cc4)c(=O)n3c2c1` (centres undefined) are 1.6%, 0.87%, 2.27%, -3.79% and -0.671%.
For `Cc1nc(N2CCC(NC(=O)c3sccc3C)CC2)cc(C(F)(F)F)n1` the same measures were -3.48%, -1.68%, -0.272%, -0.415% and 4.04%.
